Data from PubChem BioAssay AID995 (National Center for Advancing Translational Sciences (NCATS), 2007).
Among all 72,000 compounds or so, about 710 (0.99%) were called active. Inconclusive results, whose numbers are uncertain, are shown with a selection of clear calls. Calls follow the shape of the dose curve; as a rule, active = well fitted inhibition curve with a large enough effect; inconclusive = small, poorly fitted or top-dose-only effect; inactive = no such curve, though single readings can be large or run the other way. Potencies of inconclusive entries are left out as doubtful fits.
% is scaled to controls: 0 for no effect and ±100 for the full control effect; potency is read from the fitted curve at half-maximal effect; tags tell the direction and shape of the fitted curve.

Experiment: qHTS Assay for Inhibitors of the ERK Signaling Pathway using a Homogeneous Screening Assay; also: nearly all actives have a fitted effect of over 55% in size
Conditions: HEK293-V1b, vasopressin-stimulated pERK AlphaScreen; activity, negative = inhibition: at 57.5 µM (top of the series) unless noted
Summary of the method: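 Overnight-seeded V1b-HEK293 cells in 1% FBS got compound, then vasopressin (25 nM final, 5 min, 37C), then lysis buffer. AlphaScreen detection of phospho-ERK; activity normalized to basal and full-stimulation controls.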
For `O=C(Nc1ccc2c(c1)OCO2)c1cccc(S(=O)(=O)N2CCCC2)c1`, the Potency was active: 15.8 µM.
With `CC(C)Cn1c(=O)c(C2=NS(=O)(=O)c3ccccc3N2)c(O)c2ccccc21` the Potency was inconclusive [inhibitor, partial curve].
For `O=C(O)[C@H]1CCCC[C@@H]1c1c2ccc(=O)c(O)c-2oc2c(O)c(O)ccc12`, the activity, negative = inhibition was inactive: -11.5% [at 11.5 µM].
In the case of `CCOc1ccc2nc(N3CCC(C(=O)N4CCN(c5ncccn5)CC4)CC3)sc2c1`, the Potency is reported as inconclusive [inhibitor, single point].
With `COCCCNc1nc2c(c(=O)[nH]c(=O)n2C)n1CC(O)COc1ccccc1C` (centres undefined) the Potency was inconclusive [inhibitor, full curve, poor fit].
In the case of `Cc1ccc2nc3c(cc(C#N)c(=O)n3CC3CCCO3)c(=O)n2c1` (centres undefined), the “activity, negative = inhibition” value is reported as inactive: -3.68%.
For `c1ccc(-n2ncc3c(NCc4ccc5c(c4)OCO5)ncnc32)cc1`, the Potency was inconclusive [inhibitor, single point].
In the case of `O=C1NC(Nc2nc3ccccc3s2)(C(F)(F)F)C(=O)N1C1CCCCC1` (centres undefined), the Potency is reported as inconclusive [inhibitor, partial curve].
With `COc1ccc2c(OC)c3ccoc3nc2c1OC` the Potency was “inactive”.
For `CC(C)=CCC/C(C)=C/CO/N=C1/C[C@@H](O)[C@@H](O)[C@@H]2[C@@H]3C(=O)N(C4CCCCC4)C(=O)[C@H]3CC[C@@H]12`, the activity, negative = inhibition was inactive: 16.4% [at 11.5 µM].
With `COc1cccc(C(=O)CSc2nnc(CNS(=O)(=O)c3ccc(C)cc3)n2C)c1` the Potency was inconclusive [inhibitor, single point].
With `COC(=O)c1ccc(-c2n[nH]c(=O)c3ccccc23)cc1` the Potency was inconclusive [inhibitor, partial curve, poor fit].
For `CSc1nc(N2CCOCC2)c2c3c(sc2n1)CCC3`, the Potency was inconclusive [inhibitor, partial curve].
With `CCN1C(=O)c2cccc3c(S(=O)(=O)Nc4nc(C)cs4)ccc1c23` the Potency was inconclusive [inhibitor, single point].
For `COc1ccc(CC(=O)Nc2oc(-c3ccccc3)c(-c3ccccc3)c2C#N)cc1OC`, the Potency was inconclusive [inhibitor, partial curve].
For `CCOC(=O)c1ccc(Nc2nnc3nc(C)cc(C)n23)cc1`, the Potency was inconclusive [inhibitor, partial curve].
With `c1ccc2c3c([nH]c2c1)-c1[nH]ncc1CC3` the “activity, negative = inhibition” value was inactive: -20.4%.
In the case of `CN(C)c1ccc(/C=C2/C(=O)Nc3ccccc32)cc1`, the Potency is reported as active: 15.8 µM.
For `O=C(Nc1ccccc1)N1CCCC2(CCN(C(=O)c3cc(C(F)(F)F)cc(C(F)(F)F)c3)CC2)C1`, the “activity, negative = inhibition” value was inactive: 19.3%.
With `COc1ccc(-n2cnnc2SCC(=O)c2cc(C)n(Cc3cccs3)c2C)cc1` the Potency was inconclusive [inhibitor, single point].
In the case of `CCS(=O)(=O)n1nc(-c2ccccc2)nc1NCc1ccco1`, the Potency is reported as inconclusive [inhibitor, partial curve].
With `C=CCNc1oc(-c2ccc(OC)cc2)nc1C#N` the Potency was inconclusive [inhibitor, partial curve, poor fit].
For `CCOc1ccc(-c2noc(CCC(=O)NC)n2)cc1OCC`, the Potency was inconclusive [inhibitor, partial curve, poor fit].
With `COc1ccc(-c2nn3cnnc3s2)cc1OC` the Potency was inconclusive [inhibitor, full curve, poor fit].
With `CCOc1c(OC)cccc1C1CC(=O)Nc2cc(OC)c(OC)cc21` (centres undefined) the Potency was inconclusive [inhibitor, partial curve, poor fit].
In the case of `Cc1ccccc1NS(=O)(=O)c1ccc(NC(=O)c2ccco2)cc1`, the Potency is reported as inconclusive [inhibitor, partial curve].
For `Cc1nn2cc(-c3ccc(N)cc3)nc2s1`, the “activity, negative = inhibition” value was inactive: -15.7%.
For `CCOCCn1c(SCCCc2ccccc2)nc2c1c(=O)[nH]c(=O)n2C`, the “activity, negative = inhibition” value was inactive: 2.03%.
For `CCCCOC(=O)Cn1c(=O)c2c(nc3n2CCCCN3c2ccc(C)cc2)n(C)c1=O`, the Potency was inconclusive [inhibitor, single point].
With `O=C(c1nnc(-c2ccncc2)o1)c1ccccc1Cl` the Potency was inconclusive [inhibitor, single point].
For `NC(=O)c1ccc(-n2nnnc2SCc2ccccc2)cc1`, the Potency was inconclusive [inhibitor, full curve, poor fit].
With `O=C1CC(c2ccco2)Sc2nc3ccccc3n21` (centres undefined) the “activity, negative = inhibition” value was inactive: -6.64%.
In the case of `Cc1ccc(-n2cnnn2)c(S(=O)(=O)N2CCOCC2)c1`, the Potency is reported as inconclusive [inhibitor, partial curve].
With `COc1ccc(C(=O)c2c[nH]c3ccccc23)cc1` the “activity, negative = inhibition” value was inactive: -24.9%.
With `O=C(CSc1nnc(-c2ccncc2)o1)Oc1ccccc1` the Potency was inconclusive [inhibitor, single point].
In the case of `COc1ccc2[nH]cc(CCNc3ccnc(-c4ccoc4)n3)c2c1`, the Potency is reported as inconclusive [inhibitor, single point].
For `Cn1c(C(=O)NCCCN2CCOCC2)cc2c(=O)n(C)c3ccccc3c21`, the Potency was inconclusive [inhibitor, partial curve].
With `COc1c2occc2c(OC)c2c(=O)cc(C)oc12` the Potency was inconclusive [inhibitor, single point].
For `COc1ccc2c(CCNC(=O)c3ccco3)c[nH]c2c1`, the Potency was inconclusive [inhibitor, partial curve, poor fit].
With `COCCn1c(=O)cnc2cnc(Oc3ccc(OC)cc3)nc21` the Potency was inconclusive [inhibitor, full curve, poor fit].
For `Cc1cccc(OCCCCc2c(C)n[nH]c2C)c1C`, the Potency was inconclusive [inhibitor, single point].
For `CCc1nc(N)c(C#N)c(-c2ccco2)c1C`, the “activity, negative = inhibition” value was inactive: -6.77%.
For `Cc1ccc(S(=O)(=O)N(CC(=O)N2CCC(C(N)=O)CC2)Cc2ccc(F)cc2)cc1`, the “activity, negative = inhibition” value was inactive: -1.76%.
With `CC(C)(C)/C(O)=C(/C#N)c1nc2ccccc2[nH]1` the Potency was active: 20 µM.
